{"source": "PubChem BioAssay AID686978", "about": "(National Center for Advancing Translational Sciences (NCATS), 2013)", "note": "Among all 420,000 compounds or so, about 64,000 (15%) were called active. This list was built around the results that the source calls inconclusive (neither active nor inactive); the mix of calls is not that of the screen. The call rests on the fitted dose curve; in most records, active means well fitted inhibition curve with a large enough effect; inconclusive means small, poorly fitted or top-dose-only effect; inactive means flat fitted curve, though single readings scatter. No potency is given beside an inconclusive call; the fits are too rough. On the % scale 0 is the no-effect control and ±100 the full control effect; potency means the concentration at half of the fitted maximal effect; tags describe the fitted curve by direction and shape."}
{"experiment": "qHTS for Inhibitors of human tyrosyl-DNA phosphodiesterase 1 (TDP1): qHTS in cells in absence of CPT; further: nearly all actives have a fitted effect of over 55% in size", "settings": "DT40 Tdp1-/- hTDP1 cells, no CPT, ATP luminescence, 48 h; activity change, negative = growth inhibition: at 46.2 µM (top of the series) unless noted", "procedure,_shortened": "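No-CPT arm: Tdp1-/-;hTDP1 DT40 cells (400/well) plus compounds, incubated ≥48 hr at 37 °C. Readout CellTiter-Glo luminescence.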"}
{"smiles": "COc1ccc(-n2c(=O)c3c4c(sc3n(CC(=O)Nc3cc(C)[nH]n3)c2=O)CCC4)c(OC)c1", "Potency": "inconclusive [inhibitor, single point]"}
{"smiles": "CC1CN(CC(O)COc2ccccc2C(C)(C)C)CC(C)O1", "note": "(stereo not given)", "Potency": "inconclusive [inhibitor, single point]"}
{"smiles": "CC(C)(C)NC(=O)C(c1cc2ccccc2o1)n1c(=O)c(-c2ccco2)nc2ccccc21", "note": "(stereo not given)", "Potency": "inconclusive [inhibitor, single point]"}
{"smiles": "Cc1cc2nc(CN(C)C(=O)C3CCC(=O)N(C4CCCC4)C3)[nH]c2cc1C", "note": "(stereo not given)", "Potency": "inactive"}
{"smiles": "CCc1noc(-c2ccc(N3CCC(C)CC3)c([N+](=O)[O-])c2)n1", "Potency": "inconclusive [inhibitor, partial curve]"}
{"smiles": "CN1CN(C)C(c2ccncc2)=C1c1ccncc1", "Potency": "inactive"}
{"smiles": "Cc1c(C(=O)N/N=C/c2ccncc2)no[n+]1[O-]", "Potency": "inactive"}
{"smiles": "CN(C)/C=C/c1c([N+](=O)[O-])c2ccc(O)cc2n1-c1ccccc1", "Potency": "inconclusive [inhibitor, full curve]"}
{"smiles": "c1csc(C2Nc3cccc4cccc(c34)N2)c1", "Potency": "inconclusive [inhibitor, single point]"}
{"smiles": "Cn1c(=O)c2c(nc(CN3CCCCC3)n2CCc2ccccc2)n(C)c1=O", "Potency": "inconclusive [inhibitor, single point]"}
{"smiles": "Cc1ccc(NS(=O)(=O)c2ccc(-n3cccn3)cc2)cc1C", "Potency": "inconclusive [inhibitor, partial curve]"}
{"smiles": "CS(=O)(=O)c1ccc(C(=O)NC2CCCc3ccccc32)cc1", "note": "(stereo not given)", "Potency": "inactive"}
{"smiles": "COc1ccc(/C=C2\\SC(=S)N(CC(=O)NC3C=CS(=O)(=O)C3)C2=O)cc1", "note": "(stereo not given)", "Potency": "active: 3.66 µM"}
{"smiles": "CCC(Sc1nc2cc3c(cc2c(=O)n1CCCCCC(=O)NCc1ccc2c(c1)OCO2)OCO3)C(=O)NCCCOC", "note": "(stereo not given)", "Potency": "inactive"}
{"smiles": "O=C(NNC(=S)Nc1ccccc1)c1cc(Br)ccc1Cl", "Potency": "inconclusive [inhibitor, full curve, poor fit]"}
{"smiles": "CCOc1ccc(-c2cn(-c3ccc(OC)cc3)c(SC)n2)cc1", "Potency": "inconclusive [inhibitor, single point]"}
{"smiles": "O=C(NCCN1C(=O)S/C(=C/c2cccnc2)C1=O)c1cccs1", "activity change, negative = growth inhibition": "inconclusive: -33.7% [inhibitor]"}
{"smiles": "c1cc(Nc2ncnc3sc4c(c23)CCC4)ccn1", "Potency": "inconclusive [inhibitor, single point]"}
{"smiles": "COc1ccc(CCNC(=O)C(=O)NCC(c2ccco2)S(=O)(=O)c2cccs2)cc1", "note": "(stereo not given)", "Potency": "active: 13 µM"}
{"smiles": "Cn1cccc1Cc1nnc(SCC(=O)NCC2CCCO2)n1C", "note": "(stereo not given)", "Potency": "inactive"}
